# The campaign covered roughly 45,000 compounds. About 200 (0.44%) were called active. Roughly 7% stayed inconclusive and do not appear here. Calls come from the whole dose curve; as a rule, active = well fitted activation curve with a large enough effect; inconclusive = small, poorly fitted or top-dose-only effect; inactive = no such curve, though single readings can be large or run the other way. This is one part of the list.
# Assay: qHTS of TDP-43 Inhibitors: NCGC Sytravon Library Screen; note: 0% is about no effect; nearly all actives have a fitted effect of over 55% in size
# Conditions: yeast TDP-43 toxicity rescue, BacTiter-Glo growth, 24 h; series mostly up to 46.1 µM; growth rescue (activation): at the top concentration
# Summary of the method: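 TDP-43-expressing yeast, pregrown in raffinose, seeded at OD600 0.02 in galactose medium with compound for 24 hr at 30 deg C. Growth read by BacTiter-Glo luminescence, so rescue of toxicity appears as activation.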
row,Compound,growth rescue (activation)
1,Cc1ccccc1OCC(=O)NCCNC(=O)c1ccncc1,inactive: -6.21%
2,CCCCOc1ccc(C(O)(CCC)CCN2CCOCC2)cc1 (centres undefined),inactive: -3.25%
3,O=C(COC(=O)c1ccc([N+](=O)[O-])o1)Nc1ccc2c(c1)OCO2,inactive: -72.8%
4,CN(C)C(=S)NC(=O)C12CC3CC(C)(CC(C)(C3)C1)C2,inactive: 28.5%
5,NC(=O)N/N=C/c1ccccc1OC(=O)c1ccccc1Br,inactive: -20.4%
6,Cc1cccc(NC(=O)c2ccc([N+](=O)[O-])cc2Cl)n1,inactive: 20.3%
7,CCOc1ccc(C2CC(c3c(O)c4ccccc4oc3=O)=NN2c2ccccc2)cc1OC (centres undefined),inactive: -10.3%
8,O=C(O)Cc1sc(NC2CCCCC2)nc1-c1ccc(Cl)cc1,inactive: 10.4%
9,Cc1ccccc1NC(=O)/C=C1\SC(=O)NC1=O,inactive: 5.65%
10,O=[N+]([O-])c1ccc(S(=O)(=O)Nc2ccc(S(=O)(=O)N3CCCC3)cc2)cc1,inactive: -3.83%
11,Cc1ccc(NC(=O)CN(c2ccccc2F)S(C)(=O)=O)cc1,inactive: 34.8%
12,COc1cc(/C=N/Nc2ccc([N+](=O)[O-])cn2)cc(OC)c1O,inactive: 6.1%
13,O=C(CC1SC(=Nc2ccc3c(c2)OCCO3)NC1=O)Nc1ccc(F)cc1F (centres undefined),inactive: 24%
14,Cc1cc(C)c(S(=O)(=O)N2CCN(C(=O)C(C)Cn3nc(C)nc3C)CC2)c(C)c1 (centres undefined),inactive: 10.5%
15,O=c1c2ccccc2c(-c2ccccc2)nn1Cc1ccccc1,inactive: 9.96%
16,NC(=O)Cn1cnc2c(nnn2-c2ccc(F)cc2)c1=O,inactive: 0.167%
17,CCCN(CCC)CCCNC(=O)c1cn(CC)c2ccc(S(=O)(=O)N3CCc4ccccc4C3)cc2c1=O,inactive: 2.22%
18,NC1=NC(=O)/C(=C/c2ccccc2OCC(=O)Nc2ccc(F)cc2)S1,inactive: -4.44%
19,COc1cc(F)ccc1-c1cc(C(=O)NCc2cc(C(F)(F)F)cc(C(F)(F)F)c2)[nH]n1,inactive: 4.95%
20,Cc1ccccc1NC(=S)NN1CCN(C)CC1,inactive: -2.69%
21,CC(C)c1ccc(NC(=O)C2CCCN(S(=O)(=O)c3ccc4[nH]c(=O)ccc4c3)C2)cc1 (centres undefined),inactive: 7.41%
22,Clc1ccc(Nc2ccccc2)nn1,inactive: -3.43%

row,Compound,growth rescue (activation)
1,Nc1cc(C(=O)OCC(=O)NNC(=O)c2ccccc2F)ccc1Cl,inactive: 12.4%
2,Cc1cc(N/N=C/c2cccc(Cl)c2)nc(NCc2ccccc2)n1,inactive: 20%
3,COc1cccc(NC(=O)C2(C)CCN2Cc2ccc3ccccc3c2)c1 (centres undefined),inactive: 4.23%
4,Oc1ccccc1Cn1nnc2ccccc21,inactive: 4.61%
5,CCC1CCCCN1S(=O)(=O)c1ccc(-n2cnnn2)c(C)c1 (centres undefined),inactive: 22.3%
6,CCOC(=O)c1c(C)c(C)n(Cc2cccc(OC)c2OC)c1C,inactive: 17.8%
7,CC(=O)Nc1ccc(NC(=O)c2cc[n+]([O-])cc2)cc1,inactive: -5.11%
8,CSc1cccc(CNC(=O)C2CCC(=O)N(CCc3ccccn3)C2)c1 (centres undefined),inactive: 8.88%
9,CCOc1ccccc1C(=O)N[C@H](C(=O)Nc1nc2c(s1)CCCC2)C(C)C,inactive: 1.86%
10,O=c1[nH]c2ccccc2cc1CN(CC1CCCO1)S(=O)(=O)c1ccccc1 (centres undefined),inactive: 8.38%
11,Cc1cccn2cc(-c3ccc(Cl)cc3)nc12,inactive: 20.9%
12,Cc1ccc(-c2n[nH]c(=S)n2/N=C/c2sccc2C)cc1,inactive: 17.1%
13,CCOC(=O)C1(CCOc2ccccc2)CCN(Cc2cccc(-n3cccn3)c2)CC1,inactive: 8.66%
14,CC(=O)c1ccc(Oc2cc(C)nc(N3CCOCC3)n2)cc1,inactive: -11.2%
15,CN(CC(=O)NC1CCCCCC1)S(=O)(=O)c1ccc(Br)cc1,inactive: 0.431%
16,O=C(O)CC/C(=N/NC(=O)CNC(=O)c1ccc2c(c1)OCCO2)c1ccccc1,inactive: 16.4%
17,O=C(Nc1cccc(NC(=O)c2sc3ccccc3c2Cl)c1)c1ccco1,inactive: -1.97%
18,O=C(Nc1ccc(F)cc1)c1nc[nH]c1C(=O)Nc1ccc([N+](=O)[O-])cc1,inactive: 13.7%
19,COCCNC(=O)C(=O)N/N=C(\C)CC(=O)Nc1cccc(C(F)(F)F)c1,inactive: 13.6%
20,O=C(OCC(=O)N1CCCC1=O)c1cc2ccccc2o1,inactive: 1.63%
21,CSc1ccc(C=NNc2ccc(S(=O)(=O)Nc3ccccc3C(=O)O)cc2[N+](=O)[O-])cc1,inactive: 10.5%
22,COC(=O)c1nonc1NCn1nnc2ccccc21,inactive: 3.34%

row,Compound,growth rescue (activation)
1,COc1ccc(C(C(=O)NC2CCCC2)N(CCC(C)C)C(=O)CCC(=O)Nc2cc(C)on2)cc1 (centres undefined),inactive: -2.17%
2,Cc1cc2c(ncn2C)c(NS(=O)(=O)c2ccc(F)cc2)c1C,inactive: -0.896%
3,CCOC(=O)c1ccc(S(=O)(=O)NNC(=O)COc2ccccc2C)cc1,inactive: 18.1%
4,COc1cccc(/C=N/Nc2ncc(C(F)(F)F)cc2Cl)c1O,inactive: -80.8%
5,Cc1c(Cl)cccc1NC(=O)CSc1nnc(C)n1CC1CCCO1 (centres undefined),inactive: 1.03%
6,COc1ccc(CN2CCOCCOCCOCCOCC2)cc1,inactive: 5.67%
7,CC(=O)c1cc(C#N)c(N(C)Cc2ccccc2)nc1C,inactive: 9.67%
8,Cc1cc(O)c(C(=O)/C=C/c2cccc([N+](=O)[O-])c2)c(=O)o1,inactive: -2.17%
9,N#Cc1nc(/C=C/c2ccc(F)cc2)oc1NC1CCCCC1,inactive: 10.9%
10,O=C(Cn1nnc(-c2ccccc2F)n1)Nc1ccc2c(c1)OCCO2,inactive: 13.1%
11,O=C(Cn1cc(COc2ccc3ccccc3c2)nn1)NS(=O)(=O)c1cccc(OC(F)F)c1,inactive: 20.4%
12,CCn1c(SCC(=O)NC2CCCC2)nnc1-c1cccnc1,inactive: 6.49%
13,Cc1cc(NC(=O)CSc2nnnn2-c2cc(Cl)ccc2C)no1,inactive: 11.8%
14,Cc1c(Cl)cnc(NC(=O)CSc2nncs2)c1Cl,inactive: 0.161%
15,Cc1ccc(S(=O)(=O)Nc2ccc(Nc3nccn4c(-c5ccc6ccccc6c5)cnc34)cc2)cc1,inactive: 23.7%
16,Cc1cc(C)cc(NC(=O)CN2CCC(C(=O)c3ccccc3)CC2)c1,inactive: 4.39%
17,Cc1ccc(NCc2cccn2-c2nnc(N3CCC(C(=O)NCc4ccc(F)cc4)CC3)s2)cc1,inactive: -8.7%
18,O=C(N/N=C/C1C(c2ccccc2)C1(Cl)Cl)c1cccc(Br)c1 (centres undefined),inactive: 7.2%
19,CCOC(=O)Cn1c(=O)oc2cc(S(=O)(=O)N(C)c3ccc(OC)cc3)ccc21,inactive: 6.93%
20,COc1ccc(C(=O)Nc2ccc([N+](=O)[O-])cn2)c(OC)c1,inactive: 16.3%
21,CC(=O)c1c(C)nc(-c2ccc(Cl)cc2)nc1N,inactive: 23.4%
22,CCc1ccccc1N1CC(C(=O)Nc2cc(C)on2)CC1=O (centres undefined),inactive: 11.8%

row,Compound,growth rescue (activation)
1,CN(C)c1nc(C(F)(F)F)cc(=O)[nH]1,inactive: 11.4%
2,COc1cccc(N2CC(C(=O)Nc3c(C)cccc3C)CC2=O)c1 (centres undefined),inactive: -19.9%
3,CC(C)(Oc1ccc(Cl)cc1)C(=O)O/N=C(\N)c1ccncc1,inactive: 18.7%
4,O=C(NCCCCCCNC(=O)c1cncc(O)c1)c1cncc(O)c1,inactive: 16.8%
5,O=[N+]([O-])c1cccnc1NCCc1ccccc1,inactive: 19.8%
6,COc1ccc(NC(=O)c2ccc(Oc3ncccn3)cc2)cc1,inactive: 23.5%
7,CC(Sc1n[nH]c(N)n1)C(=O)Nc1ccccc1-c1ccccc1 (centres undefined),inactive: -10%
8,CN(C(=O)c1coc(=O)c2ccccc12)c1ccc(F)cc1,inactive: 26.8%
9,COc1ccc(S(=O)(=O)N(C)C)cc1NCC(=O)Nc1cccc2ccccc12,inactive: 6.02%
10,COc1cccc(OC)c1NC(=O)C1CCCN1C(=O)Nc1ccccc1F (centres undefined),inactive: -0.9%
11,O=C/C=C/c1c(-c2ccccc2)cc2oc3ccccc3cc1-2,inactive: -0.735%
12,NC(=O)COC(=O)c1cc(Cl)cc(Cl)c1N,inactive: 13.9%
13,NC(=O)c1nn(-c2ccccc2)nc1NC(=O)Cn1nnc(-c2ccccc2)n1,inactive: 12.1%
14,O=C(NC1CCCC1)C(c1ccccn1)N(C(=O)c1csnn1)c1ccc(F)cc1 (centres undefined),inactive: 3.72%
15,CN1CCN(c2ccccc2NC(=O)c2ccc([N+](=O)[O-])cc2Cl)CC1,inactive: 17.5%
16,Cc1cccc(OCCSc2nc3ncnc(N)c3[nH]2)c1,inactive: -9.13%
17,Cc1ccc(S(=O)(=O)NC(=O)C2(C)CCN2C(=O)COc2ccc(Cl)cc2)nc1 (centres undefined),inactive: -17.6%
18,CSC(=NC#N)N1CCN(c2ccc([N+](=O)[O-])cc2)CC1,inactive: 15.6%
19,O=S(=O)(c1ccccc1)c1nc(Nc2cccc(O)c2)sc1Cl,inactive: 16.5%
20,CCOP(=O)(OCC)C(NC(=O)C(F)(F)F)c1ccccc1 (centres undefined),inactive: -1.86%
21,CC(C)(C)c1ccccc1NC(=O)c1ccc2c(c1)SC1=NS(=O)(=O)CCN12,inactive: 2.29%
22,N#CCCn1cc(CNC2CCC(O)CC2)c2ccccc21 (centres undefined),inactive: 15.8%

row,Compound,growth rescue (activation)
1,C=CCn1c(SCC(=O)c2c(N)n(C)c(=O)n(C)c2=O)nnc1-c1ccoc1C,inactive: 12.9%
2,O=C(Nc1cccc(NC(=O)c2ccc(Br)o2)c1)c1ccccc1,inactive: 5.61%
3,CC(C)C(NC(=O)OCc1ccccc1)C(=O)N1CCOCCOCCOCC1 (centres undefined),inactive: -8.43%
4,CCCN1C(=O)/C(=C/c2c(NCCCOC(C)C)nc3c(C)cccn3c2=O)SC1=S,inactive: -11.1%
5,OC(COC(c1ccccc1)c1ccccc1)CN1CCc2ccccc2C1 (centres undefined),inactive: 5.93%
6,O=C(Nc1cccc(F)c1)C1CCN(C(=O)NCc2ccccc2)CC1,inactive: 6.18%
7,CCc1ccc2c(c1)NC(=O)C2(C)Cc1ccccc1C#N (centres undefined),inactive: 12.1%
8,N#CCCNS(=O)(=O)c1ccc(C(=O)OCC2CCCCC2)cc1,inactive: -9.06%
9,CCc1nnc(NC(=O)C2CCN(S(=O)(=O)c3ccc(C)cc3)CC2)s1,inactive: 0.19%
10,CN(Cc1nc(-c2ccc(Cl)cc2)no1)C(=O)c1ccco1,inactive: 11.7%
11,Cc1c(Cl)cccc1NC(=S)C(=C([O-])c1ccc(Cl)s1)[n+]1ccccc1,inactive: 17.4%
12,CCCCC/C=N/NC(=O)c1[nH]c2ccc([N+](=O)[O-])cc2c1C,inactive: 13.6%
13,COc1ccc(CCNC(=O)COc2ccc3c(C)cc(=O)oc3c2)cc1,inactive: 9.7%
14,Oc1c(CN2CCOCC2)ccc2ccccc12,inactive: -2.3%
15,CCOc1ccc(NCc2ccccc2OCc2cccc(F)c2)cc1,inactive: 4.61%
16,O=C(CN1CCN(c2ccc(O)cc2)CC1)Nc1ccc(SC(F)F)cc1,inactive: 13.3%
17,COc1ccc(NC(=O)CNc2ccc(C#N)cc2)cc1,inactive: 21.8%
18,CCCSc1ncc(Cl)c(C(=O)N(Cc2ccc(N(C)C)cc2)C2CCS(=O)(=O)C2)n1 (centres undefined),inactive: 8.06%
19,O=C(NC(Cc1ccccc1)C(=O)O)/C(=C/c1cccc(Br)c1)NC(=O)c1ccco1 (centres undefined),inactive: 11.4%
20,COc1ccccc1-n1cccc1C=O,inactive: -0.156%
21,CCOC(=O)c1ccc[n+](CC(=O)Nc2ccccc2OC(F)F)c1,inactive: 5.61%

# From PubChem BioAssay AID1347073 (National Center for Advancing Translational Sciences (NCATS), 2019)
